Reference: patent publication US20060122260A1, “Intermediates for aromatic polyketides as selective anticancer and antiviral agents” (priority 2002, published 2006)

Tested on: Canine parvovirus type 2 (CPV-d)
Experiment: Parvovirus infectivity screening (animal virus model)
Settings: 5 nM to 500 nM
Method: The compounds were initially tested against parvovirus. The results for S2507 and S2502 were alike. […] The chart in FIG. 1 presents the results of S2507 compared to negative control and positive control (bafilomycin). […] CPV was pelleted with ultracentrifugation at 173 000 g for 1 h and resuspended in 0.9 ml of PBS, pH 7.4. The suspension was sonicated with low power and chloroform extracted. For infectivity screening studies cells grown on (diameter 13 mm) coverslips to 80% confluency were inoculated with CPV. The drug (1 μM or 500 nM, diluted to DMEM 2 coverslips/concentration) was added simultaneously with CPV and was present during the course of infection. Control samples were incubated without drug. 24 h post-infection (p.i.) the coverslips were dipped in phosphate-buffered saline (PBS), pH 7.4 and fixed with 4% paraformaldehyde in PBS. […] Samples were examined with a laser scanning fluorescence microscope (Zeiss, Axiovert 100M, LSM 510) using excitation/emission settings appropriate for the dye used. Infectivity was determined by counting the ratio of cells with fluorescent nuclei to total number of cells (stained with texasred-X-conjugated wheat germ agglutinin) (n=300) at 24 h p.i. by immunofluorescence with polyclonal antibody (Comell#2) to CPV.

Structure (SMILES): CC(=O)/C=C1/C=C2OC(CC(=O)O)Cc3cc4cccc(O)c4c(c32)O1 (stereo not shown) [S2507]
- effect on parvovirus over concentration range: the effect was found with all of these dilutions
